# Screen size: about 310,000 compounds; about 14,000 (4.5%) showed an effect of 50% or more. The effect is printed as a negative number. The list shows a part of the results.
# Biological target: human ether-à-go-go-related gene (hERG) potassium channel (human, UniProt Q12809)
# Experiment: primary screen, population patch clamp on CHO cells stably expressing hERG
# 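Also: peak tail current of the secondary pulse compared with the same well before compound.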
# Chain of human ether-à-go-go-related gene (hERG) potassium channel (Q12809 whole entry, looked up): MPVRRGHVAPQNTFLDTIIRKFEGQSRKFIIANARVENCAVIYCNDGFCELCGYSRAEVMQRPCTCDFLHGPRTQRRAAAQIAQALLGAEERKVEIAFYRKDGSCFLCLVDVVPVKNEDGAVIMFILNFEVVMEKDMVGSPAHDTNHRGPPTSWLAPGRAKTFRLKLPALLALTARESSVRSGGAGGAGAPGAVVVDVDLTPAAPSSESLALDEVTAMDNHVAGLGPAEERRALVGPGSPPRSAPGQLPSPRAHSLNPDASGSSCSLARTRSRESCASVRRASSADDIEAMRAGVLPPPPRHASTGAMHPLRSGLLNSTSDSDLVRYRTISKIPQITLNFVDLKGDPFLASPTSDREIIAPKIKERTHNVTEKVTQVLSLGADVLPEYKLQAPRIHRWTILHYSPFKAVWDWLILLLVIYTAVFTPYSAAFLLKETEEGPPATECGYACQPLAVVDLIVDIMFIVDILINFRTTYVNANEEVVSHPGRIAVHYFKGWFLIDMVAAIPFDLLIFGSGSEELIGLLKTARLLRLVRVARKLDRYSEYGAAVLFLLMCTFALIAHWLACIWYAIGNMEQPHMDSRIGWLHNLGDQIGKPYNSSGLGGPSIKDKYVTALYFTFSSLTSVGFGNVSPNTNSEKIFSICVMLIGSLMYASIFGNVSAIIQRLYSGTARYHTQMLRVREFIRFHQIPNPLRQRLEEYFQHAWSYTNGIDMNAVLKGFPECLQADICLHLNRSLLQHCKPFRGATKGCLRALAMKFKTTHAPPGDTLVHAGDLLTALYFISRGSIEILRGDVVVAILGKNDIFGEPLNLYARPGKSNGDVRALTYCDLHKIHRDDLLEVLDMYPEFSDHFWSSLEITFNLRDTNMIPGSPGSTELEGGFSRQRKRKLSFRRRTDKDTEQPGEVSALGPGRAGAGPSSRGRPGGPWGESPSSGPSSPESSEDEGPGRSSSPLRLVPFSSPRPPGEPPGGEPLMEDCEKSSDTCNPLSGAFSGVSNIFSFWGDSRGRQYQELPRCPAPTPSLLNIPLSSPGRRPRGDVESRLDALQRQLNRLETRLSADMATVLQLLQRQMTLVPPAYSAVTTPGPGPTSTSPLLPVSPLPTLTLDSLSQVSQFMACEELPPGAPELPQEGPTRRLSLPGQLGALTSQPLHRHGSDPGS
row,Compound,"hERG current change (%, negative = inhibition) at 10uM [%]"
1,CCOc1ccccc1NC(=O)NC(C)c1ccc2c(c1)OCO2 (stereo not drawn),3.52
2,COc1ccccc1NS(=O)(=O)c1ccc2oc(SC3CCOC3=O)nc2c1 (stereo not drawn),-1.09
3,Cc1cc(CSc2nc(C)cc(=O)[nH]2)c2ncccc2c1,-3.07
4,Cc1cc(C)n2nc(C(=O)Nc3ccc(S(=O)(=O)N4CCCC4)cc3)nc2n1,-8.44
5,CN(C)C1(CNC(=O)C2CCN(S(=O)(=O)c3cccc(C(F)(F)F)c3)CC2)CCCCC1,-34.6
6,CCOc1ccc(OCC)c(NC(=O)c2ccc(CNc3c(N4CCOCC4)c(=O)c3=O)cc2)c1,7.11
7,COc1cccc(C2=NOC(C(=O)Nc3ccc(OC)c(OC)c3)C2)c1 (stereo not drawn),-11.8
8,CCCCC(CC(O)COCCC)C(=O)NN (stereo not drawn),16.1
9,CC(C)CNC(=O)c1cc(=O)[nH]c2ccc(S(=O)(=O)Nc3ccc(F)cc3)cc12,10.7
10,c1ccc(C2C3=C(Nc4ncnn42)c2ccccc2CCC3)cc1 (stereo not drawn),6.55
11,CC(C)C(=O)NCC(c1cccs1)S(=O)(=O)c1ccc(F)cc1 (stereo not drawn),16.7
12,CCCCc1cc(=O)oc2cc(C)cc(OCC(=O)N[C@@H](CSCc3ccccc3)C(=O)O)c12,15.2
13,Cc1cccc(N(Cc2cc3ccc(C)cc3[nH]c2=O)C(=O)c2ccco2)c1,-8.8
14,O=C(CSc1nc(O)cc(=O)n1-c1ccccc1)NCc1ccccc1,-0.712
15,OC(COc1cccc2ccccc12)CN1CCN(c2ccccc2Cl)CC1 (stereo not drawn),-50.2
16,CCC(CC)C(=O)Nc1nnc(SCC(=O)NC(C)(C)C)s1,5.93
17,O=C(CC1C(=O)NCCN1Cc1ccc(Cl)c(F)c1)NC1CCC1 (stereo not drawn),13.5
18,CC(=O)O[C@@]12CO[C@@H]1C[C@H](O)[C@@]1(C)C(=O)[C@H](O)C3=C(C)[C@@H](OC(=O)[C@H](O)[C@@H](NC(=O)c4ccccc4)c4ccccc4)C[C@@](O)([C@@H](OC(=O)c4ccccc4)C12)C3(C)C (stereo partly drawn),2.07
19,CN(Cc1cn(C)c2ccccc12)C(=S)Nc1cc(F)cc(F)c1,-14.9
20,CCOc1ccc(CN(C)c2nc(-c3cccnc3)nc3ccccc23)cc1OC,-15.2
21,COc1ccc(CNCCc2ccccc2)cc1OCC(N)=O,-12
22,CCCCOC(=O)/C=C\C(=O)OCCCC,9.89

row,Compound,"hERG current change (%, negative = inhibition) at 10uM [%]"
1,Cc1ccnc(NC(=O)CCC(=O)N(CC(=O)NCc2ccc(F)cc2)CC2CCCO2)c1 (stereo not drawn),2.42
2,Cc1ccc(NC(=O)c2cc([N+](=O)[O-])ccc2N2CCOCC2)cc1S(=O)(=O)N1CCOCC1,-46
3,O=C(NCc1ccc(F)cc1)c1cc(S(=O)(=O)N2CCOCC2)ccc1F,-20.6
4,O=P(O)(Cc1ccccc1)Cc1ccccc1,18.3
5,O=c1c2ccccc2c(C=Nc2ccc(Cl)cn2)c(O)n1-c1cc(Cl)ccc1N1CCOCC1,16.9
6,COc1cc(/C=C/C(=O)OCC(=O)c2c(N)n(C)c(=O)n(C)c2=O)ccc1OCC#N,-5.23
7,C/C(=N\NC(=O)c1cc(-c2ccc(C)s2)nc2ccccc12)c1cccnc1,-9.41
8,O=c1c2c3c(sc2nc2n1CCCC2)CCCCC3,-8.65
9,COc1ccc(-c2cc3ccccc3n2CC(O)CNCCO)cc1.O=C(O)C(=O)O (stereo not drawn),3.61
10,Cc1cc(Cl)c(S(=O)(=O)NC2CCCC2)cc1OCC(N)=O,-4.58
11,O=C1CC(N(O)C2CC(=O)N(Cc3ccccc3)C2=O)C(=O)N1Cc1ccccc1 (stereo not drawn),-44.8
12,COc1ccccc1/C=C/C(=O)c1c2c(c(C)[nH]c1=O)CCCC2,-3.23
13,CC(C)n1c(C(F)(F)F)nc2cc(C(=O)N3CCCCC3)ccc21,-41.4
14,C=CCn1c2ccccc2c2nnc(SCCN3CCOCC3)nc21,-10.3
15,Cc1ccc(Cn2ncc3c(N4CCOCC4)ncnc32)cc1,-27.8
16,Nc1c(S(=O)(=O)c2cccs2)c2nc3ccccc3nc2n1CCc1ccccc1,-20.6
17,CN(C)S(=O)(=O)c1ccc(S(=O)(=O)N2CCCC(C(=O)NC3CC3)C2)cc1 (stereo not drawn),9.57
18,Cc1cc(C(=O)CSc2nnnn2-c2ccccc2)c(C)n1-c1ccc2c(c1)OCO2,-4.47
19,CCN(CC)S(=O)(=O)c1ccc(N2CCOCC2)c(NS(=O)(=O)c2ccc(C(C)C)cc2)c1,-6.87
20,Cl.OCCN1CCN(CC(O)COc2ccc(-c3ccccc3)cc2)CC1 (stereo not drawn),-45.9
21,C=CCSc1nc(N)c(C#N)c(-c2ccc(C)cc2)c1C#N,4.13
22,Cc1nc2ccc(NC(=S)N3CCOCC3)cc2nc1C,5.88

row,Compound,"hERG current change (%, negative = inhibition) at 10uM [%]"
1,Cc1ccc2sc(=O)[nH]c2c1,23.4
2,COc1ccc(OC)c(-n2c(SCC(N)=O)nnc2-c2c[nH]c3ccccc23)c1,2.45
3,Cc1ccc(N(C(C)C(=O)N2CCCCC2)S(C)(=O)=O)cc1C (stereo not drawn),-8.59
4,COc1ccc(Br)cc1CNC(=O)C1CCN(S(=O)(=O)N2CCCC2)CC1,-36.2
5,O=C(COC(=O)/C=C/c1ccc(F)cc1)Nc1cccc(S(=O)(=O)N2CCCC2)c1,18.5
6,O=C(C1CC1)n1cc(C(=S)N2CCOCC2)c2ccccc21,-9.19
7,O=[N+]([O-])c1ccc(-c2c(-c3ccccc3)ncc3cc(F)ccc23)cc1,1.58
8,CCN(CC)S(=O)(=O)c1ccc2c(c1)nc(CCC(=O)O)n2CC,12.3
9,CC1(C)CC(C(=O)Nc2ccccc2)C(=O)O1 (stereo not drawn),9.98
10,N/C(=N\OC(=O)c1ccc(Cl)cc1[N+](=O)[O-])c1ccccn1,12.8
11,Nc1nc(NCCc2ccccc2)nc(NCc2ccccc2)c1[N+](=O)[O-],20.4
12,Cc1ccc(/C=N/NC(=O)c2csc(C)c2)o1,10.6
13,Cc1ccc(C)c(NC(=O)CN(C)C(=O)CN2C(=O)NC3(CCc4ccccc43)C2=O)c1 (stereo not drawn),15.2
14,Cn1cnc(C(=O)N2CCN(C(=O)OC(C)(C)C)CC2)c1C(=O)N1CCN(C(=O)OC(C)(C)C)CC1,24.4
15,CN1CCN(NC(=O)Nc2cccc(F)c2)CC1,17.3
16,COCC(=O)N1CCC(Oc2ccc(C(=O)NCCc3ncccc3C)cc2)CC1,20.5
17,CC1(C)N=C(/C=N/O)CN1O,11.7
18,Cc1oc(CC(C)C)c(CN2CCCC2)c1C(=O)O.Cl,-5.47
19,Nc1nc(SCC(=O)NCCN2CCOCC2)nc2sc3c(c12)CCC3,-65.9
20,O=C(/C=C/c1cccs1)N1CCCC1,33.1
21,Cc1cc(/C=C2/NC(=O)NC2=O)c(C)n1-c1ccc(C#N)cc1,-34.6
22,O=C(Nc1cccc(S(=O)(=O)N2CCCCC2)c1)c1cnccn1,-2.1

row,Compound,"hERG current change (%, negative = inhibition) at 10uM [%]"
1,O=C(Cc1ccccc1)N1CCC2(CC1)NCCc1[nH]cnc12,38.2
2,CC(C)C(NC(=O)c1ccc(C(C)(C)C)cc1)C(=O)NC1=NCCS1 (stereo not drawn),-6.13
3,Cc1ccccc1NC(=O)c1ccc2ccccc2c1,-8.12
4,COc1ccc(CCNC(=O)C2CCCN2C(=O)Nc2ccc(Cl)cc2)cc1OC (stereo not drawn),-8.85
5,CC(=O)NC(Cc1ccccc1C)C(=O)NC1CCN(C(=O)c2cccc(C)c2)CC1 (stereo not drawn),34.5
6,CC1CN(C(=O)COC(=O)c2ccc(S(=O)(=O)N(C)C)cc2)CC(C)O1 (stereo not drawn),25.6
7,COc1ccccc1/C=C/C(=O)N1CCOCC1,6.65
8,C=CCN(CC=C)C(=S)NC(=O)c1ccc([N+](=O)[O-])cc1,-0.526
9,Cc1ccc(C(=O)N/C(=C\c2ccc(C(C)C)cc2)C(=O)NCCCN2CCOCC2)cc1,-72.3
10,CCCOc1ccc(NC(=O)CCC(=O)NC(C)c2ccccc2)cc1 (stereo not drawn),22.5
11,Cc1nn(-c2ccccc2)c(Cl)c1C(=O)NC1CCCCC1,-16.1
12,O=C(C1CCCC1)N1CCCC(Nc2ccccc2)C1 (stereo not drawn),-20.4
13,CCOC(=O)N1CCC(NC(=O)CCC(=O)c2ccccc2)CC1,10.8
14,Cc1ccc(C)c(NC(=O)C(CC(=O)O)Cc2ccccc2)c1 (stereo not drawn),9.71
15,CC1CCCCC1NC(=O)COC(=O)c1cccn1C (stereo not drawn),10.8
16,C=C1CCC[C@]2(C)C[C@H]3OC(=O)C(CN[C@@H](C)c4ccccc4)[C@H]3CC12 (stereo partly drawn),12.6
17,O=C(NCc1ccco1)C1CCCN(c2nnc(-n3cccc3)s2)C1 (stereo not drawn),-26.8
18,Cc1cccc(NC(=O)C(=O)C2C(=O)Nc3ccccc32)c1 (stereo not drawn),4.05
19,CC(=O)Nc1cccc(NC(=O)C2CC(=O)N(C3CCCCC3)C2)c1 (stereo not drawn),4.19
20,C=CCNc1nc(N(c2ccccc2)c2ccccc2)nc(-n2ccnc2)n1,7.1
21,O=C(NCC1CCCN(Cc2ccc3c(c2)OCCO3)C1)c1ccc2c(c1)OCO2 (stereo not drawn),-18.8
